Laboratory results taken from publication PMC3314181 (Cellular and Molecular Life Sciences: CMLS, 2011).

Target: the molecule itself
Test: SDS-PAGE without heat denaturation and Western blot

B1: APP695 with C-terminal myc tag followed by the KKAA ER retention motif (natural protein)
chain: not shown
- fold increase of dimers with brefeldin A (10–30 μg/ml, 1 h) over vehicle: 2 fold
